# The other results are listed elsewhere or left out.
# Tests used:
# Test in all cases: glycan array binding signal (z-score within array); higher = stronger binding
# Details in all cases: glycan notation: IUPAC condensed, linker removed
# [1] = target: Gal(b1-4)GlcNAc(b1-2)Man(a1-3)Man(b1-4)GlcNAc(b1-4)GlcNAc
# In short: (§1)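 Arrays were curated from the Consortium for Functional Glycomics database, 3228 in total, and kept only where the protein sequence was available. Binding is expressed as a within-array Z-score. This score was averaged across arrays of the same protein sequence at different concentrations or buffers and across linkers, and negative values can be read as non-binding.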
# [2] = target: Gal(b1-4)GlcNAc(b1-2)Man(a1-3)[Gal(b1-4)GlcNAc(b1-2)Man(a1-6)]Man(b1-4)GlcNAc(b1-4)GlcNAc
# In short: as §1
# [3] = target: Gal(b1-4)GlcNAc(b1-2)Man(a1-3)[Gal(b1-4)GlcNAc(b1-2)Man(a1-6)]Man(b1-4)GlcNAc(b1-4)[Fuc(a1-6)]GlcNAc
# In short: as §1
# [4] = target: Gal(b1-4)GlcNAc(b1-2)Man(a1-3)[Gal(b1-4)GlcNAc(b1-2)][GlcNAc(b1-4)]Man(b1-4)GlcNAc(b1-4)GlcNAc
# In short: as §1
# [5] = target: Gal(b1-4)GlcNAc(b1-2)Man(a1-3)[GlcNAc(b1-2)Man(a1-6)]Man(b1-4)GlcNAc(b1-4)GlcNAc
# In short: as §1
# [6] = target: Gal(b1-4)GlcNAc(b1-2)Man(a1-3)[Man(a1-6)]Man(b1-4)GlcNAc(b1-4)GlcNAc
# In short: as §1
# [7] = target: Gal(b1-4)GlcNAc(b1-2)Man(a1-6)Man(b1-4)GlcNAc(b1-4)GlcNAc
# In short: as §1
# [8] = target: Gal(b1-4)GlcNAc(b1-2)Man(a1-6)[GlcNAc(b1-2)Man(a1-3)]Man(b1-4)GlcNAc(b1-4)GlcNAc
# In short: as §1
# [9] = target: Gal(b1-4)GlcNAc(b1-2)Man(a1-6)[Man(a1-3)]Man(b1-4)GlcNAc(b1-4)GlcNAc
# In short: as §1
# [10] = target: Gal(b1-4)GlcNAc(b1-2)[Gal(b1-4)GlcNAc(b1-4)]Man(a1-3)[Gal(b1-4)GlcNAc(b1-2)Man(a1-6)]Man(b1-4)GlcNAc(b1-4)GlcNAc
# In short: as §1
# [11] = target: Gal(b1-4)GlcNAc(b1-2)[Gal(b1-4)GlcNAc(b1-4)]Man(a1-3)[Gal(b1-4)GlcNAc(b1-2)[Gal(b1-4)GlcNAc(b1-6)]Man(a1-6)]Man(b1-4)GlcNAc(b1-4)GlcNAc
# In short: as §1
# [12] = target: Gal(b1-4)GlcNAc(b1-2)[Gal(b1-4)GlcNAc(b1-4)]Man(a1-3)[GlcNAc(b1-4)][Gal(b1-4)GlcNAc(b1-2)Man(a1-6)]Man(b1-4)GlcNAc(b1-4)GlcNAc
# In short: as §1
# [13] = target: Gal(b1-4)GlcNAc(b1-2)[Gal(b1-4)GlcNAc(b1-6)]Man(a1-6)[GlcNAc(b1-4)][Gal(b1-4)GlcNAc(b1-2)Man(a1-3)]Man(b1-4)GlcNAc(b1-4)GlcNAc
# In short: as §1
# [14] = target: Gal(b1-4)GlcNAc(b1-3)Gal(b1-3)GlcNAc
# In short: as §1
# [15] = target: Gal(b1-4)GlcNAc(b1-3)Gal(b1-4)Glc
# In short: as §1
# [16] = target: Gal(b1-4)GlcNAc(b1-3)Gal(b1-4)GlcNAc
# In short: as §1
# [17] = target: Gal(b1-4)GlcNAc(b1-3)Gal(b1-4)GlcNAc(b1-3)Gal(b1-4)GlcNAc
# In short: as §1
# [18] = target: Gal(b1-4)GlcNAc(b1-3)Gal(b1-4)[Fuc(a1-3)GlcNAc(b1-6)]Gal(b1-4)Glc
# In short: as §1
# [19] = target: Gal(b1-4)GlcNAc(b1-3)Gal(b1-4)[Fuc(a1-3)]GlcNAc(b1-3)Gal(b1-4)[Fuc(a1-3)]GlcNAc
# In short: as §1
# [20] = target: Gal(b1-4)GlcNAc(b1-3)GalNAc
# In short: as §1
# [21] = target: Gal(b1-4)GlcNAc(b1-3)[Gal(b1-4)GlcNAc(b1-6)]Gal(b1-4)GlcNAc
# In short: as §1
# [22] = target: Gal(b1-4)GlcNAc(b1-3)[Gal(b1-4)GlcNAc(b1-6)]GalNAc
# In short: as §1
# [23] = target: Gal(b1-4)GlcNAc(b1-3)[GlcNAc(b1-6)]Gal(b1-4)GlcNAc
# In short: as §1
# [24] = target: Gal(b1-4)GlcNAc(b1-6)Gal(b1-4)GlcNAc
# In short: as §1
# [25] = target: Gal(b1-4)GlcNAc(b1-6)Gal(b1-4)GlcNAc(b1-6)GalNAc
# In short: as §1
# [26] = target: Gal(b1-4)GlcNAc(b1-6)GalNAc
# In short: as §1
# [27] = target: Gal(b1-4)GlcNAc(b1-6)[Gal(b1-3)]GalNAc
# In short: as §1
# Gal(b1-6)Gal = target: Gal(b1-6)Gal
# In short: as §1
# Gal3S(b1-3)GalNAc = target: Gal3S(b1-3)GalNAc
# In short: as §1
# Gal3S(b1-3)GlcNAc = target: Gal3S(b1-3)GlcNAc
# In short: as §1
# [28] = target: Gal3S(b1-3)[Fuc(a1-4)]GlcNAc
# In short: as §1
# Gal3S(b1-4)Glc = target: Gal3S(b1-4)Glc
# In short: as §1
# Gal3S(b1-4)Glc6S = target: Gal3S(b1-4)Glc6S
# In short: as §1
# Gal3S(b1-4)GlcNAc = target: Gal3S(b1-4)GlcNAc
# In short: as §1
# Gal3S(b1-4)GlcNAc6S = target: Gal3S(b1-4)GlcNAc6S
# In short: as §1
# [29] = target: Gal3S(b1-4)[Fuc(a1-3)]Glc
# In short: as §1
# [30] = target: Gal3S(b1-4)[Fuc(a1-3)]Glc6S
# In short: as §1
# Gal3S4S(b1-4)GlcNAc = target: Gal3S4S(b1-4)GlcNAc
# In short: as §1
binder,measurement,setting,value
"LSectin (Mus musculus), Q8BNX1 (protein) MNTGEYNKLGSAIEEVSRGQLGRWECYKQRLFFLVLALLVATVLWALILSTLLSSASSKLRVLLSHQDLLRTNASEQKMTLSSLKDDIGACRNCCSVTKAQLQTTLAEFKDIQAKLMEQESILKELQERVTQDLAKASRDRENIRSELFQALEAVKRQNSSCEQCPPSWLPFQGSCYYFSETQATWDTAQSYCGGQGAHLVIVRGLNEQGFLSQHTRGRGYWLGLRAVRHLNKIQGYRWVDGASLNFSHWNSGEPNDSRGHEDCIMMLHSGLWNDAPCTNERDGWICEKRSSCY",glycan array binding signal (z-score),[1],-0.177
same,glycan array binding signal (z-score),[2],-0.167
same,glycan array binding signal (z-score),[3],-0.168
same,glycan array binding signal (z-score),[4],-0.172
same,glycan array binding signal (z-score),[5],1.57
same,glycan array binding signal (z-score),[6],-0.189
same,glycan array binding signal (z-score),[7],-0.188
same,glycan array binding signal (z-score),[8],4.08
same,glycan array binding signal (z-score),[9],-0.141
same,glycan array binding signal (z-score),[10],-0.185
same,glycan array binding signal (z-score),[11],-0.178
same,glycan array binding signal (z-score),[12],-0.186
same,glycan array binding signal (z-score),[13],-0.184
same,glycan array binding signal (z-score),[14],-0.165
same,glycan array binding signal (z-score),[15],-0.186
same,glycan array binding signal (z-score),[16],-0.177
same,glycan array binding signal (z-score),[17],-0.175
same,glycan array binding signal (z-score),[18],-0.19
same,glycan array binding signal (z-score),[19],-0.175
same,glycan array binding signal (z-score),[20],-0.184
same,glycan array binding signal (z-score),[21],-0.184
same,glycan array binding signal (z-score),[22],-0.192
same,glycan array binding signal (z-score),[23],-0.184
same,glycan array binding signal (z-score),[24],-0.156
same,glycan array binding signal (z-score),[25],-0.153
same,glycan array binding signal (z-score),[26],-0.15
same,glycan array binding signal (z-score),[27],-0.175
same,glycan array binding signal (z-score),Gal(b1-6)Gal,-0.188
same,glycan array binding signal (z-score),Gal3S(b1-3)GalNAc,-0.163
same,glycan array binding signal (z-score),Gal3S(b1-3)GlcNAc,-0.159
same,glycan array binding signal (z-score),[28],2.46
same,glycan array binding signal (z-score),Gal3S(b1-4)Glc,-0.156
same,glycan array binding signal (z-score),Gal3S(b1-4)Glc6S,0.457
same,glycan array binding signal (z-score),Gal3S(b1-4)GlcNAc,-0.175
same,glycan array binding signal (z-score),Gal3S(b1-4)GlcNAc6S,-0.164
same,glycan array binding signal (z-score),[29],-0.148
same,glycan array binding signal (z-score),[30],-0.167
same,glycan array binding signal (z-score),Gal3S4S(b1-4)GlcNAc,-0.155

# From the supplement of paper PMC8728848
